From paper PMC4336329 (PLoS ONE, 2015)
Out of some 310,000 compounds screened, about 14,000 (4.5%) showed an effect of 50% or more. The effect is printed as a negative number. The list shows a part of the results.

Each compound was assayed against human ether-à-go-go-related gene (hERG) potassium channel (human, UniProt Q12809) (assay: primary screen, population patch clamp on CHO cells stably expressing hERG).
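Note: peak tail current of the secondary pulse compared with the same well before compound.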

human ether-à-go-go-related gene (hERG) potassium channel, sequence (Q12809 whole entry, looked up): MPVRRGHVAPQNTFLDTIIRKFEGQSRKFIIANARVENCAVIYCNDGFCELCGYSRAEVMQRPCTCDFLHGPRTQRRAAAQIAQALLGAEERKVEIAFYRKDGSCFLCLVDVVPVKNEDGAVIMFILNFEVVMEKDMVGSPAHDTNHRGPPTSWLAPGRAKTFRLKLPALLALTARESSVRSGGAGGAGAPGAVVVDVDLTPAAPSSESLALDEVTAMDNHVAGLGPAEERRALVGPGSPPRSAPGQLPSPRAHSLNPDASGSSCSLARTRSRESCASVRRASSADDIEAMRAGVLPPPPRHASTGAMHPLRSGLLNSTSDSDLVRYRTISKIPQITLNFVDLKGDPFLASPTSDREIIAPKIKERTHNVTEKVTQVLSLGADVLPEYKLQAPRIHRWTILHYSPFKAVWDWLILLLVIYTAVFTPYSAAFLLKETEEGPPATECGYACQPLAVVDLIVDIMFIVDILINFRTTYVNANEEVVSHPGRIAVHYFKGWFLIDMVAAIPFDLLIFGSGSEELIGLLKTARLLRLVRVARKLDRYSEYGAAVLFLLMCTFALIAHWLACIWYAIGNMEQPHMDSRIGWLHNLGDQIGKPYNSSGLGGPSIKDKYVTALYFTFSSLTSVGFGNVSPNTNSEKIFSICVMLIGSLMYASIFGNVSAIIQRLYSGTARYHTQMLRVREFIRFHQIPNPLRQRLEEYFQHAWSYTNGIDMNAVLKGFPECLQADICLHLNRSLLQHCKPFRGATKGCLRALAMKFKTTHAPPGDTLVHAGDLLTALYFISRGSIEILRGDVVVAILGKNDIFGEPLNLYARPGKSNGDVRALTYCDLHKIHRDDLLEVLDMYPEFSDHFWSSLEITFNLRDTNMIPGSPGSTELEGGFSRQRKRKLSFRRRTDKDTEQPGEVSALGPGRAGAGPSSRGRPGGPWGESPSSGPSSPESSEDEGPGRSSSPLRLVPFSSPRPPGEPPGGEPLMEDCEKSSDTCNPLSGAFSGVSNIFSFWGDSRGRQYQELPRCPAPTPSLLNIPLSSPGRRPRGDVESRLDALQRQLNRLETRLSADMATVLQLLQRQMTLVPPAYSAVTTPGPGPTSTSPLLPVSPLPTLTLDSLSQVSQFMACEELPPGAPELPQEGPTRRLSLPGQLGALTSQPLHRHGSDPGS

Row | Compound | hERG current change (%, negative = inhibition) at 10uM [%]
1 | O=C(OCC(=O)N1CCOCC1)c1cccc(S(=O)(=O)Nc2ccc(F)cc2)c1 | -16.3
2 | O=C1C(Cl)=C(N2CCOCC2)C(=O)N1c1ccccc1 | 3.46
3 | Cc1cccc(C)c1NC(=O)C(=O)NCCCN1CCOCC1 | 8.72
4 | O=C(O)CC1(CC(=O)N2CCOCC2)CCCC1 | 9.36
5 | O=C(c1ccccc1)N1CCN(C(=O)c2ccccc2)C1c1ccccc1 | 4.53
6 | O=C(NCCc1ccccn1)c1n[nH]c(=O)c2ccccc12 | -13.1
7 | CCCc1[nH]nc2c1C1(CCN(C(=O)OCc3ccccc3)CC1)C(C#N)=C(N)O2 | -0.739
8 | C[C@]12CCC(=O)C=C1CC[C@@H]1[C@@H]2[C@@H](O)C[C@]2(C=O)[C@@H](C(=O)CO)CC[C@@H]12 | -0.464
9 | O=C(NC(c1ccccc1)c1ccccc1)c1ccc(CO)cc1 | -15.4
10 | O=C1NC(=S)N(c2ccccc2)C(=O)C1C(c1ccncc1)C1C(=O)NC(=S)N(c2ccccc2)C1=O (stereo not shown) | 30.1
11 | COc1cccc(C(=O)N/N=C(/c2ccccc2)c2ccccn2)c1 | 6.88
12 | Cc1cc(OCC(=O)N(C)Cc2ccccc2)cc(C)c1Cl | -7.8
13 | Cc1nn(C)c(C(=O)NC2C3CC4CC(C3)CC2C4)c1Cl (stereo not shown) | 2.27
14 | COc1cc(OC)c2cc[nH]c2c1 | 27.3
15 | Cc1onc(-c2ccccc2Cl)c1C(=O)Nc1nnc(-c2ccc(Cl)cc2Cl)s1 | 17
16 | COc1ccc(CN2C(=O)c3cccnc3C2Nc2ccc(C)cc2)cc1 (stereo not shown) | -18.6
17 | CCC(C)N(C(=O)COc1ccc(NC(C)=O)cc1)C1CCS(=O)(=O)C1 (stereo not shown) | 56.7
18 | CCNCC1(c2ccc(OC)c(OC)c2)CCCC1.Cl | -5.6
19 | CCCCOc1ccc(NC2=NC3(CCCCC3)N=C(N)N2)cc1 | 6.7
20 | C/C(CC(=O)NC(C)(C)C)=N\NC(N)=S | 20
21 | Cn1c(Cn2c(=O)sc3ccccc32)nnc1SCC(=O)N1CCCC1 | -9.47
22 | COCC(=O)N(C)c1nnc(-c2ccc([N+](=O)[O-])cc2)s1 | 6.65
23 | Cc1cccc(/C=N/NC(=O)c2ccc(NC(=O)c3ccc(Cl)cc3)cc2)n1 | 1.04

Row | Compound | hERG current change (%, negative = inhibition) at 10uM [%]
24 | COc1ccc(CNC(=O)c2sccc2C)cc1 | 20.2
25 | Cc1cccc(NC(=S)NCCC(C)C)c1 | 0.688
26 | CCN(CC)C(=N)N1c2ccccc2CCC1C.Cl (stereo not shown) | -0.402
27 | CCOCCCNC(=O)c1c[nH]c2cc(OC)ccc2c1=O | 9.13
28 | COc1ccccc1Nc1cc(C(=O)NCc2cccnc2)c2ccccc2n1 | -12.3
29 | COC(=O)c1ccc(/C=N/NC(=O)C(=O)N2CCCCCC2)cc1 | 6.12
30 | O=C(NCc1ccccc1)c1cc2ccccc2o1 | -4.68
31 | COc1ccc(OCc2cc(C(=O)N3CCCN(C(C)=O)CC3)no2)c(Cl)c1 | -14.8
32 | CCOC(=O)C1(Cc2cccc(Cl)c2)CCCN(C(=O)c2ccoc2C)C1 (stereo not shown) | -7.06
33 | CCOC(=O)CS(=O)(=O)c1ccc(O)cc1 | 47
34 | O=C(NCc1ccc2c(c1)OCO2)c1c(F)c(F)c(F)c(F)c1F | 8.95
35 | Cc1nc(C(=O)NC2CCOCC2)sc1C1(C)CC(c2ccccc2)=NO1 (stereo not shown) | -19.8
36 | Cc1ccc(Cc2nnc(SCC(=O)Nc3ccccc3C)[nH]c2=O)cc1 | -12.9
37 | O=C(Nc1nc(-c2cccs2)cs1)c1ccc([N+](=O)[O-])o1 | 0.579
38 | O=C(NC1CCSc2ccccc21)c1ccc(F)cc1 (stereo not shown) | 1.96
39 | NS(=O)(=O)c1cccc(NC(=S)NC(=O)c2cccc([N+](=O)[O-])c2)c1 | -13.2
40 | CC(=O)N1CCCc2cc(S(=O)(=O)Nc3ccc4c(c3)OCO4)ccc21 | -11.2
41 | CCOC(=O)CSc1cn2c(n1)CCC2 | -0.729
42 | CCCS(=O)(=O)NCCc1cc2c(C)ccc(C)c2[nH]c1=O | -6.65
43 | Br.Cc1ccc(Nc2nc(-c3c(C)nc4ccccn34)cs2)cc1 | -62.7
44 | C=CCN1C(=O)c2ccccc2Sc2ccc(C(=O)N3CCC4(CC3)OCCO4)cc21 | -4.43
45 | O=C(Cc1ccc(-n2c(=O)c3sccc3n(Cc3ccc(F)cc3)c2=O)cc1)NCc1ccco1 | -11.2
46 | O=c1c2ccccc2nc(-c2ccccc2Cl)n1O | 11.9
